# Experimental data as given in PubChem BioAssay AID1345083 (National Center for Advancing Translational Sciences (NCATS), 2018).
# Out of some 94,000 compounds screened, about 6,200 (6.6%) were called active. Inconclusive means that the source gave no clear call. Such entries were picked first, then a sample of the others. Calls come from the whole dose curve; as a rule, active = well fitted inhibition curve with a large enough effect; inconclusive = small, poorly fitted or top-dose-only effect; inactive = flat fitted curve, though single readings scatter. Potencies of inconclusive entries are doubtful fits and often do not repeat.
# Assay: Cytotoxic Profiling in HEK 293 Cell Line of Diverse Libraries Using Quantitative High-Throughput Screening; note: nearly all actives have a fitted effect of over 60% in size
# Conditions: HEK 293 viability, ATP luminescence (CellTiter-Glo), 48-72 h; activity change, negative = cytotoxicity: at 115 µM (top of the series) unless noted; series mostly up to 115 µM
# Procedure, shortened: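 Viability of HEK 293 cells, plated at 250 cells/well, was judged by cellular ATP after compound treatment for 48 or 72 hr. Luminescence was imaged 10 min after CellTiter-Glo addition at room temperature.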
# % is set by controls: 0 for no effect and ±100 for the full control effect; potency is the fitted concentration of half-maximal effect; tags give direction and shape of the fitted curve.
SMILES,Potency,"activity change, negative = cytotoxicity"
Cc1oc2ccn(Cc3cccc(F)c3)c(=O)c2c1C(=O)NCc1cccc(F)c1,"inconclusive: 50.1 µM [inhibitor, partial curve, poor fit]",
COC(=O)C1=C(C)N=C2SC=C(CC(=O)N3CCCC3)N2C1c1cccc(F)c1 (configuration not stated),"inconclusive: 79.4 µM [inhibitor, partial curve, poor fit]",
O=C(c1ccccc1)N1CCC2(C1)C(=O)N(c1ccccc1)c1ccccc12 (configuration not stated),"inconclusive: 79.4 µM [inhibitor, partial curve, poor fit]",
C[C@@H](NC(=O)c1cc(-c2ccc(C(F)(F)F)cc2)nc2c1cnn2C)c1ccccc1,,inactive: 0.85%
COc1ccccc1Nc1ccnc(N2CCC(N[S+](=O)([O-])c3c(C)noc3C)CC2)n1,"inconclusive: 44.7 µM [inhibitor, partial curve, poor fit]",
COCCN1CCCCCC(O)c2cc(C(=O)N(CCN(C)C)Cc3ccccc3)ccc21 (configuration not stated),"inconclusive: 89.1 µM [inhibitor, single point]",
Cc1cc(=O)n(CC(=O)NCc2ccccc2)c(N(C)Cc2ccccc2)n1,"inconclusive: 70.8 µM [inhibitor, partial curve, poor fit]",
Cn1nccc1-c1ncc2c(n1)OCCN(Cc1ccccc1)C2=O,"inconclusive: 89.1 µM [inhibitor, partial curve]",
COc1ccc(CN2Cc3[nH]cnc3C[C@H]2c2nc(-c3ccc(C)cc3)no2)cc1,active: 100 µM,
Cc1nc(CN(C)C(=O)c2cc(Cn3c(C)nc4ccccc43)on2)cs1,"inconclusive: 8.91 µM [inhibitor, full curve, poor fit]",
CC(C)CN1CC2(CCN(C(=O)c3ccc4occc4c3)CC2)CC1=O,"inconclusive: 17.8 µM [inhibitor, single point]",
Cc1noc(C)c1CN1CCc2nc(C(=O)NCc3ccccc3)oc2CC1,"inconclusive: 112 µM [inhibitor, partial curve, poor fit]",
O=C(C1CCOC1)N1CCC(N(Cc2ccccc2)C2CCOCC2)CC1 (configuration not stated),active: 89.1 µM,
O=C(c1cc(F)ccc1Cl)N1CCC2(CC1)CC(O)CCO2 (configuration not stated),,inactive: -9.63%
Cc1ccc(NC(=O)C2CCCN(c3ccnc4ccnn34)C2)cc1 (configuration not stated),active: 35.5 µM,
CCC1(O)CCC12CCN(C(=O)CCC1CCCC1)CC2 (configuration not stated),"inconclusive: 31.6 µM [inhibitor, partial curve, poor fit]",
O=C(NCc1ccccc1)c1c(-c2ccccc2)cc(=O)n2c1CCCC2,"inconclusive: 35.5 µM [inhibitor, partial curve]",
Cn1c(CNC(=O)C23CCCC=C2N(C2CCCC2)C(=O)CC3)nc2ccccc21 (configuration not stated),"inconclusive: 100 µM [inhibitor, partial curve, poor fit]",
CCn1nccc1C(=O)N1CCC2(CC1)c1[nH]c3ccc(OC)cc3c1CCN2C,"inconclusive: 39.8 µM [inhibitor, partial curve, poor fit]",
COc1ccc(CCc2nc(C3CC(=O)N(Cc4ccccc4OC)C3)no2)cc1 (configuration not stated),"inconclusive: 35.5 µM [inhibitor, full curve]",
COC(=O)[C@@H]1Cc2c([nH]c3ccccc23)[C@H]2C[C@@H](NC[C@H]3CCCO3)C[C@@H](c3ccccc3F)N21,active: 79.4 µM,
O=C(NCc1cccs1)c1nc(-c2ccsc2)c2ccccn12,"inconclusive: 56.2 µM [inhibitor, full curve]",
COc1ccccc1-c1cccc(CN2CCCC(C(=O)NCc3ccc(C(F)(F)F)cc3)C2)c1 (configuration not stated),active: 17.8 µM,

SMILES,Potency,"activity change, negative = cytotoxicity"
O=C(c1ccc2cc[nH]c2c1)N1CCC(N2CC(OCC3CC3)C23CCOCC3)CC1 (configuration not stated),,inactive: -3.87%
c1ccc(C2(c3nc(C4CCOC4)no3)CCCCC2)cc1 (configuration not stated),"inconclusive: 89.1 µM [inhibitor, single point]",
O=C(c1ccccc1OCC1CCCN(C2CCCCC2)C1)N1CCCCC1 (configuration not stated),"inconclusive: 89.1 µM [inhibitor, single point]",
CCC(C(=O)NCc1nnc2cc(-c3nc(C4CC4)no3)ccn12)c1ccccc1 (configuration not stated),"inconclusive: 50.1 µM [inhibitor, partial curve, poor fit]",
COc1ccccc1-c1cc(C(=O)NCCCc2ccccc2)nn2cnnc12,"inconclusive: 50.1 µM [inhibitor, partial curve, poor fit]",
CCOc1ccc(CN2CCCC(COc3ccccc3C(=O)N3CCCC3)C2)cc1 (configuration not stated),"inconclusive: 89.1 µM [inhibitor, single point]",
OC1CC(c2cc(NCCOc3ccccc3)ncn2)C1 (configuration not stated),"inconclusive: 44.7 µM [inhibitor, partial curve, poor fit]",
Cc1ccc(CNC(=O)N2CCCC(Cc3noc(-c4ccccc4)n3)C2)cc1 (configuration not stated),active: 28.2 µM,
COc1ccc(Nc2ccc3c(n2)CN(Cc2ccccc2C)C(=O)CO3)cc1,active: 89.1 µM,
Cc1ccc(Nc2ccnc(N3CCC(NC(=O)Cc4cccc(Cl)c4)CC3)n2)cc1,active: 25.1 µM,
COc1ccc(OC)c(NC(=O)C2CCc3ncc(-c4ccsc4)n3C2)c1 (configuration not stated),"inconclusive: 89.1 µM [inhibitor, partial curve, poor fit]",
CC1=NS(=O)(=O)N(Cc2ccccc2)C=C1C(=O)OCc1nc(-c2ccc(F)cc2)no1,"inconclusive: 39.8 µM [inhibitor, full curve]",
Cn1cc([C@@H](NC(=O)CCn2nnc3ccccc32)C2CC(O)C2)cn1 (some centres not stated),,inactive: -12.5%
O=C(NCc1ccc2c(c1)OCO2)C1CCCN(Cc2cccc(-c3cccs3)c2)C1 (configuration not stated),active: 28.2 µM,
O=c1n(-c2cccc(Cl)c2)nc2n1CCN(Cc1ccccc1)C2,"inconclusive: 50.1 µM [inhibitor, full curve, poor fit]",
O=C(Nc1ccccc1F)NC1CCN(Cc2cccc(-c3cccs3)c2)CC1,active: 25.1 µM,
O=C1NCCOCCCN(C(=O)CC2CCCC2)[C@H]2CCCC[C@@H]12,,inactive: 0.335%
Clc1ccccc1C1(c2ccnc(NCCn3cccn3)n2)CCNCC1,"inconclusive: 89.1 µM [inhibitor, single point]",
Cc1cc(C(=O)N2CCC3(CC2)N=C(CC(C)C)NC3=O)c(C)o1,,inactive: -5.31%
Cc1nc(NC(=O)C2c3ccccc3C(=O)N(C3CCCC3)C23CCCC3)sc1C (configuration not stated),,inactive: -29.4%
O=c1n(CC2CC2)nc2n1CCN(Cc1ccc3cc[nH]c3c1)CC2,"inconclusive: 79.4 µM [inhibitor, partial curve, poor fit]",
O=C(NCCc1ccc(Cl)cc1)C1CCCN(Cc2cccc(-c3cccs3)c2)C1 (configuration not stated),"inconclusive: 44.7 µM [inhibitor, partial curve, poor fit]",
O=C(c1ccccc1)N1CCN(Cc2ccccc2-c2ccccc2F)CC1,"inconclusive: 100 µM [inhibitor, single point]",

SMILES,Potency,"activity change, negative = cytotoxicity"
CNC(=O)c1cc(C2CC2)nc2onc(C3CCN(C(=O)c4ccc(C)cc4)CC3)c12,,inactive: 4%
COc1ccc(C(=O)N2CCc3ccc(C(=O)NCc4cccc(OC)c4)cc32)cc1,active: 79.4 µM,
O[C@@H]1C[C@@H](c2nc(-c3ccncc3)no2)N(Cc2ccc(F)cc2)C1,,inactive: -5.49% [at 172 µM]
Cc1ccc(-c2cccc(CN)c2)c(C)c1,active: 44.7 µM,
COc1cccc(CN2CCCC(O)(CN3CCCCC3)C2=O)c1 (configuration not stated),,inactive: -16.7%
O=C1Nc2ccccc2C12CCN(Cc1ccc(F)cc1)C2 (configuration not stated),"inconclusive: 79.4 µM [inhibitor, partial curve]",
CC(C)NC(=O)C1CCCN1Cc1ccc(-c2cncnc2)cc1 (configuration not stated),,inactive: 4.75% [at 172 µM]
Cc1cc(C)c(CNC(=O)c2cc(-c3ccccc3C)cc3ncn(C)c23)c(=O)[nH]1,active: 112 µM,
CC1(c2ccccc2)N(Cc2ccccc2)C(=O)OC12CCN(C(=O)Cc1cccc(F)c1)CC2 (configuration not stated),"inconclusive: 31.6 µM [inhibitor, full curve, poor fit]",
COc1cncc(Nc2ncc(-c3cccc(N(C)C)c3)c3c2OCC3)c1,,inactive: -80.1% [at 172 µM]
O=C1NCCOCCN(C(=O)c2ccccn2)[C@H]2CCC[C@@H]12,,inactive: -16.3%
CC(C)Oc1ccc(CNC(=O)c2cc(-c3ccncc3)cn2C)cc1,"inconclusive: 50.1 µM [inhibitor, partial curve, poor fit]",
Cc1cccc(C)c1CN1CCC2(Cc3ccccc3CNC2=O)C1 (configuration not stated),"inconclusive: 89.1 µM [inhibitor, partial curve, poor fit]",
CNC(=O)CCn1ncc2cc(OCc3ccccc3-c3cccc(CO)c3)ccc21,active: 79.4 µM,
COc1ccc(-c2cc(-c3ccc4cn[nH]c4c3)cn3cncc23)cn1,"inconclusive: 79.4 µM [inhibitor, partial curve]",
CCCN(CCC)C(=O)c1coc(COc2ccc3sc(C)nc3c2)n1,"inconclusive: 50.1 µM [inhibitor, partial curve, poor fit]",
CCCn1cnc2c1CN(S(=O)(=O)c1ccc(F)cc1)[C@H](C(=O)OC)C2,,inactive: -1.19% [at 172 µM]
CCC(=O)Nc1cc(C(=O)NCC(C)C)c2ccc(C)nc2c1,,inactive: -20%
COc1cccc(NC(=O)N(C[C@H]2O[C@H](Cc3cc(-c4ccccc4)on3)CC[C@@H]2O)C(=O)Nc2cccc(OC)c2)c1,"inconclusive: 79.4 µM [inhibitor, partial curve]",
COc1ccc(CCC(=O)N2CCC[C@H]2c2nc(-c3ccccc3)no2)cc1,"inconclusive: 50.1 µM [inhibitor, partial curve, poor fit]",
O=C(N[C@H]1CCN2C(=O)c3cc(-c4cccc(C(F)(F)F)c4)ccc3NC(=O)[C@H]12)c1cnccn1,active: 44.7 µM,
